Results as given in ChEMBL document CHEMBL5724801, “EUbOPEN Chemogenomics Library - Multiplex” (2024).
Some entries of the source have several records that differ or are many. The list is limited to them. There may be further records. Values given together repeat one measurement across runs, samples, wells, individuals or studies.

Columns and labels:
Assay type in all cases: toxicity, cell-based
Fibroblast = assay: Multiplex assay against human fibroblast
Method in brief: (§1)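 Live cells were stained at seeding with Hoechst33342, BioTracker Green Microtubule Cytoskeleton Dye, MitoTracker Red and Annexin V Alexa Fluor 680. Following compound addition, they were imaged on a CQ1 microscope at 37°C and 5% CO2 and gated by CellPathfinder machine learning into Hoechst high-intensity objects or normal cells, with normal cells split into healthy, pyknosed or fragmented nuclei and pyknosed cells into mitotic or apoptotic. Tubulin, mitochondrial-mass and membrane-permeability phenotypes are per cents of healthy-nucleus cells.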

HEK-293T = assay: Multiplex assay against HEK293T; settings: human; method in brief: as §1
U2OS = assay: Multiplex assay against U2OS; settings: human; method in brief: as §1
[1] = 48 h, 1 µM, compound concentration 1 uM
[2] = 12 h, 1 µM, compound concentration 1 uM
[3] = 12 h, 10 µM, compound concentration 10 uM
[4] = 24 h, 1 µM, compound concentration 1 uM
[5] = 24 h, 10 µM, compound concentration 10 uM
[6] = 48 h, 10 µM, compound concentration 10 uM

SMILES	Population Mitochondria Different-Phenotype (%) (Fibroblast; [1])	Population Tubulin-Different-Phenotype (%) (HEK-293T; [2])	Population Tubulin-Different-Phenotype (%) (HEK-293T; [3])	Population Pyknosed Nuclei (%) (HEK-293T; [4])	Population Tubulin-Different-Phenotype (%) (HEK-293T; [1])	Total Cell Count (HEK-293T; [1])	Population Tubulin-Different-Phenotype (%) (HEK-293T; [6])	Total Cell Count (HEK-293T; [6])	Total Cell Count (U2OS; [2])	Total Cell Count (U2OS; [4])	Total Cell Count (U2OS; [1])	Population Healthy Nuclei (%) (HEK-293T; [2])	Population Mitochondria Different-Phenotype (%) (HEK-293T; [2])	Population Healthy Nuclei (%) (HEK-293T; [3])	Population Healthy Nuclei (%) (HEK-293T; [5])	Total Cell Count (U2OS; [6])	Population Pyknosed Nuclei (%) (HEK-293T; [1])	further results
CN1CC[C@@]23CCCC[C@@H]2[C@@H]1Cc1ccc(O)cc13.O=C(O)C(O)C(O)C(=O)O	17.05% and 2.64%	5.02% and 25%	4.62% and 46.15%	14.89% and 50%	1.08% and 15.21%	1598 and 337	1.19% and 29.01%	1052 and 235	465 and 138	656 and 171	1243 and 281							Total Cell Count (HEK-293T; [4]): 659 and 197; Total Cell Count (HEK-293T; [5]): 484 and 150; Population Apoptotic (%) (HEK-293T; [1]): 2.11% and 16.67%; Population Apoptotic (%) (HEK-293T; [6]): 4.81% and 18.84%; Population Fragmented Nuclei (%) (U2OS; [3]): 1.59% and 35.94%; Population Mitochondria Different-Phenotype (%) (U2OS; [4]): 0.34% and 12.93%; Population Fragmented Nuclei (%) (U2OS; [5]): 1.13% and 30.21%; Population Fragmented Nuclei (%) (U2OS; [6]): 3.17% and 17.36%
Oc1c(CN2CCN(c3ccccn3)CC2)cc(Cl)c2cccnc12																		Population Mitotic Cells (%) (Fibroblast; [5]): 10% and 43%; Population Mitotic Cells (%) (HEK-293T; [6]): 16% and 5%; Population Fragmented Nuclei (%) (U2OS; [4]): 29% and 7%
CCCCCN1C(=O)C2(COc3cc4c(cc32)OCO4)c2ccccc21 (stereo not drawn)	17.98% and 4.02%	6.21% and 29.17%	8.15% and 47.06%	18.73% and 60.2%	1.42% and 21.37%	1196 and 310	2.45% and 37.9%	862 and 216	471 and 156	633 and 205	1207 and 356	57.84% and 16%	35.59% and 8.33%	42.32% and 10.97%	66.52% and 19.3%	950 and 272		Population Apoptotic (%) (Fibroblast; [3]): 2.99% and 14.55%; Population Apoptotic (%) (Fibroblast; [1]): 7.69% and 35.71%; Population Apoptotic (%) (HEK-293T; [6]): 6.8% and 24.44%; Population Mitochondria Different-Phenotype (%) (U2OS; [3]): 0.28% and 23.39%; Population Mitochondria Different-Phenotype (%) (U2OS; [5]): 0.66% and 21.32%; Total Cell Count (U2OS; [5]): 526 and 166; Population Mitochondria Different-Phenotype (%) (U2OS; [6]): 0.24% and 13.48%
CCn1c(-c2nonc2N)nc2c(C#CC(C)(C)O)ncc(OCC3CCCNC3)c21 (stereo not drawn)	13.04% and 2.78%	5.7% and 45.45%			3.31% and 34.07%	633 and 178						46.33% and 7.59%		34.53% and 5.81%	46.08% and 7.36%	656 and 196		Population Apoptotic (%) (Fibroblast; [4]): 10% and 36.67%; Population Tubulin-Different-Phenotype (%) (Fibroblast; [4]): 6.14% and 18.45%; Population Mitochondria Different-Phenotype (%) (Fibroblast; [5]): 19.2% and 3.38%; Population Tubulin-Different-Phenotype (%) (Fibroblast; [1]): 4.35% and 14.81%; Population Tubulin-Different-Phenotype (%) (HEK-293T; [4]): 27.18% and 8.57%; Population Mitochondria Different-Phenotype (%) (U2OS; [3]): 1.89% and 27.72%; Population Mitochondria Different-Phenotype (%) (U2OS; [5]): 1.45% and 28.43%
CCn1c(-c2ccncc2)cc2c1CCNC2=O	15.38% and 1.67%				16.56% and 73.08%	386 and 115	7.84% and 35.71%					47.12% and 12.73%		27.97% and 4.86%	36.4% and 6.43%		13.84% and 54.39%	Population Apoptotic (%) (Fibroblast; [3]): 11.11% and 40%; Population Fragmented Nuclei (%) (Fibroblast; [3]): 15.56% and 2.6%; Population Fragmented Nuclei (%) (Fibroblast; [4]): 16.92% and 5.41%; Population Apoptotic (%) (Fibroblast; [5]): 7.14% and 42.31%; Population Fragmented Nuclei (%) (Fibroblast; [5]): 13.97% and 1.55%; Population Healthy Nuclei (%) (HEK-293T; [4]): 69.81% and 22.7%; Population Tubulin-Different-Phenotype (%) (HEK-293T; [5]): 28.57% and 0%; Population Healthy Nuclei (%) (HEK-293T; [6]): 40.96% and 10.29%; Population Membrane Permeable-Phenotype (%) (U2OS; [6]): 8.82% and 26.67%
COc1cc(N2CCN(C)CC2)ccc1Nc1nccc(-c2cn(C)c3cnccc23)n1		10.64% and 33.33%	8.5% and 44.12%	16.82% and 64.84%	1.68% and 31.52%	1115 and 160	0.48% and 69.7%	480 and 133			803 and 245	64.98% and 11.01%	25.53% and 0%	78.66% and 25.56%			11.85% and 38.36%	Population Fragmented Nuclei (%) (Fibroblast; [3]): 16.67% and 1.17%; Population Fragmented Nuclei (%) (Fibroblast; [5]): 17.01% and 2.69%; Population Apoptotic (%) (Fibroblast; [1]): 0% and 33.33%; Population Apoptotic (%) (Fibroblast; [6]): 33.33% and 10%; Total Cell Count (HEK-293T; [2]): 434 and 109; Population Mitochondria Different-Phenotype (%) (HEK-293T; [3]): 29.15% and 8.82%; Population Pyknosed Nuclei (%) (HEK-293T; [3]): 19.75% and 69.92%; Total Cell Count (HEK-293T; [4]): 648 and 128; Population Pyknosed Nuclei (%) (HEK-293T; [5]): 10.28% and 49.17%; Population Mitochondria Different-Phenotype (%) (U2OS; [2]): 0.6% and 35.96%; Population Mitochondria Different-Phenotype (%) (U2OS; [3]): 10.8% and 72.92%; Population Mitochondria Different-Phenotype (%) (U2OS; [4]): 0.5% and 42.96%; Population Mitochondria Different-Phenotype (%) (U2OS; [5]): 7.65% and 67.65%; Population Mitochondria Different-Phenotype (%) (U2OS; [1]): 0.14% and 23.78%; Population Healthy Nuclei (%) (U2OS; [6]): 54.25% and 15.04%; Population Mitochondria Different-Phenotype (%) (U2OS; [6]): 5.56% and 45%; Population Mitotic Cells (%) (U2OS; [6]): 17.27% and 4.35%
Cc1nc2ccc(Oc3ccc(F)cc3)cc2c(=O)n1C[C@H]1CCCN(C(C)C)C1.Cl	2% and 13%															380 and 103		Population Membrane Permeable-Phenotype (%) (Fibroblast; [2]): 1% and 21%; Population Membrane Permeable-Phenotype (%) (Fibroblast; [4]): 1% and 19%; Population Hoechst High Intensity Objects (%) (HEK-293T; [2]): 6% and 27%; Population Hoechst High Intensity Objects (%) (HEK-293T; [4]): 4% and 22%; Total Cell Count (U2OS; [3]): 268 and 86; Total Cell Count (U2OS; [5]): 297 and 91
Cc1ccc(-c2c(C(=O)CF)n(CCCO)c3ncnc(N)c23)cc1	18.85% and 3.11%	5.2% and 22.22%		22.13% and 74.38%	1.66% and 42.34%	1301 and 194	1.9% and 38.02%	1026 and 199	387 and 104	516 and 134	975 and 220	58.84% and 12.24%	36.42% and 5.56%	52.68% and 11.85%			9.92% and 40.21%	Population Fragmented Nuclei (%) (Fibroblast; [4]): 17.18% and 2.33%; Population Fragmented Nuclei (%) (Fibroblast; [1]): 17.96% and 2.78%; Population Healthy Nuclei (%) (HEK-293T; [4]): 74.47% and 23.12%; Population Mitochondria Different-Phenotype (%) (HEK-293T; [5]): 32.23% and 10.53%; Population Apoptotic (%) (HEK-293T; [1]): 2.33% and 16.67%; Population Pyknosed Nuclei (%) (HEK-293T; [6]): 9.36% and 36.68%
CCCn1c(=O)c2[nH]c(C3CCCC3)nc2n(CCC)c1=O [1,3-DIPROPYL-8-CYCLOPENTYLXANTHINE [DPCPX]]	1% and 12%																	Population Apoptotic (%) (Fibroblast; [5]): 63% and 20%; Population Membrane Permeable-Phenotype (%) (Fibroblast; [6]): 1% and 16%; Population Hoechst High Intensity Objects (%) (HEK-293T; [3]): 5% and 18%; Population Hoechst High Intensity Objects (%) (HEK-293T; [5]): 4% and 15%; Population Mitotic Cells (%) (U2OS; [3]): 31% and 0%
CCC(=N\O)/C(C)=C/c1ccc(F)cc1 [A-079]	14.42% and 1.74%	3.7% and 37.14%	7.69% and 26.32%	15.15% and 56.84%	0.84% and 15.85%	1541 and 339	1.85% and 29.49%	1072 and 157	469 and 137	637 and 187	1176 and 335	65.15% and 19.13%		55.56% and 15.08%		1023 and 273		Population Tubulin-Different-Phenotype (%) (Fibroblast; [1]): 4.65% and 16.86%; Population Mitochondria Different-Phenotype (%) (Fibroblast; [6]): 16.38% and 1.43%; Population Mitochondria Different-Phenotype (%) (HEK-293T; [3]): 34.87% and 5.26%; Total Cell Count (HEK-293T; [4]): 581 and 190; Population Tubulin-Different-Phenotype (%) (HEK-293T; [5]): 13.78% and 2.86%; Total Cell Count (HEK-293T; [5]): 544 and 177; Population Pyknosed Nuclei (%) (HEK-293T; [6]): 11.38% and 49.36%; Total Cell Count (U2OS; [5]): 489 and 158
O=C(Nc1c[nH]nc1-c1nc2cc(CN3CCOCC3)ccc2[nH]1)NC1CC1 [AT-9283]		5.56% and 40%			5.92% and 65.52%								25% and 8%		20.9% and 6.71%		17.6% and 53.97%	Population Mitotic Cells (%) (Fibroblast; [6]): 56.52% and 8.99%; Population Mitochondria Different-Phenotype (%) (HEK-293T; [3]): 41.43% and 11.76%; Population Healthy Nuclei (%) (HEK-293T; [4]): 54.96% and 15.69%; Population Mitochondria Different-Phenotype (%) (HEK-293T; [5]): 32.14% and 10%; Population Healthy Nuclei (%) (HEK-293T; [6]): 18.75% and 6%; Population Mitochondria Different-Phenotype (%) (U2OS; [1]): 0.42% and 19.32%
